Assay results reported in patent US20090162336A1 (published 2009).

Biological target: T1, taxol-stabilized microtubules made from PC tubulin
T1 construct: polymer of tubulin dimers; stoichiometries are per tubulin dimer; also called MT; polymerized tubulin
Assay: microtubule pelleting assay, gel densitometry, 30 µM polymerized tubulin

T1 sequence (P02550 whole entry, chain 1 of 2): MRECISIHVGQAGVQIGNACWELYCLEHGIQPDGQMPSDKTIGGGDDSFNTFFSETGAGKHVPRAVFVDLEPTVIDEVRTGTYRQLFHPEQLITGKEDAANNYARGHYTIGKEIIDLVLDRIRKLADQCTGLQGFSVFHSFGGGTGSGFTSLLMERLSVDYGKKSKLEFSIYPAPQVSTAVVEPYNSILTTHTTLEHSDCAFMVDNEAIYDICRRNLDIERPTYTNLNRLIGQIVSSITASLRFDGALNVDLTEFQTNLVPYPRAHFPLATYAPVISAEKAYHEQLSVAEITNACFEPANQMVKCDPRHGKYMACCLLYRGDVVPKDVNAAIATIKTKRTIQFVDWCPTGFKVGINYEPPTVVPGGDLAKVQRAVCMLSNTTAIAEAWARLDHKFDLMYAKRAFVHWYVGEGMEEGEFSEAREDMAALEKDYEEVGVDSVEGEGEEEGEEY
T1 sequence (P02554 whole entry, chain 2 of 2, further chain): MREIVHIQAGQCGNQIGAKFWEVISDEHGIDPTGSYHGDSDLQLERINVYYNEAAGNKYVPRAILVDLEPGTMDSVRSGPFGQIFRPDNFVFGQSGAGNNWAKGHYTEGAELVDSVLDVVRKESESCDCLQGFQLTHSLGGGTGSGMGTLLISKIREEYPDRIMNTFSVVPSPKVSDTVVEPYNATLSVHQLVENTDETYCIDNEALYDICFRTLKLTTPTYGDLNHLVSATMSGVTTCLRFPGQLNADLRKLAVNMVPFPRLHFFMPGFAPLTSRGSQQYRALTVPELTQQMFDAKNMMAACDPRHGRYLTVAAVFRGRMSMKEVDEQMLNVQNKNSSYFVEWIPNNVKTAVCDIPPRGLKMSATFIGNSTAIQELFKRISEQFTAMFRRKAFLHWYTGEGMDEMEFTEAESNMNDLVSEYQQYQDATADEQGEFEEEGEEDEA

B1: htau23 mutant Ser202-Ala phosphorylated with brain extract (other)
chain: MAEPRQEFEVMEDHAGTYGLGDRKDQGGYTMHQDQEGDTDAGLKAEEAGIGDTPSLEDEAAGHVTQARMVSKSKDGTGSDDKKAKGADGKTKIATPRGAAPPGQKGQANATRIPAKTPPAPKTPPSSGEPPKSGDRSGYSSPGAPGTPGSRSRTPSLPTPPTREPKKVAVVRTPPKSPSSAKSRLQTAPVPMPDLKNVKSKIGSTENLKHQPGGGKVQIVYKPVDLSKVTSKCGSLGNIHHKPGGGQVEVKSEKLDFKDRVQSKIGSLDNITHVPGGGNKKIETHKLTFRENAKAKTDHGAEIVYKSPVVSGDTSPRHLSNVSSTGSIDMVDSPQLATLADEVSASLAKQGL
modifications: phosphorylated in vitro by the brain extract kinase activity
Question: B1 was tested. Which Kd did it give?
Answer: The Kd was 9.4 µM.

Question: And the “stoichiometry n (tau/tubulin dimer)” value?
Answer: The value was 0.31 tau/tubulin dimer.
